Assay results as given in PubChem BioAssay AID1508624 (National Center for Advancing Translational Sciences (NCATS), 2021).
Hit rate of the full screen: of about 48,000 compounds, about 120 (0.25%) were called active. Inconclusive results (about 4%) are left out. Calls follow the shape of the dose curve; as a rule, active = well fitted activation curve with a large enough effect; inconclusive = small, poorly fitted or top-dose-only effect, or another doubt; inactive = no such curve, though single readings can be large or run the other way. The list shows a part of the results.

assay: Primary qHTS for Identification of Small Molecule Activators of Huntingtin-Antisense Promoter Activity; conditions: HEK293 HTT-AS promoter firefly luciferase reporter, 24 h; series mostly up to 57.5 µM; activity change, positive = activation: at the top concentration; also: nearly all actives have a fitted effect of over 55% in size
Outline: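 Firefly luciferase readout (Dual-Glo, 10 min RT) after 24 h, 37 °C compound exposure (final up to 57.5 uM) of HEK293 reporter cells cultured 24 h beforehand; PTC124 at 50 uM final as control inhibitor; activity scaled vehicle 0%, zero RLU -100%.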

Activity change, positive = activation, inactive:
COCCCNC(=O)c1cnn(-c2ccccc2Cl)c1C1CCN(C(=O)OC(C)(C)C)CC1 -1.44%
COc1ccc(CNC(=O)C2CCN(C(=O)c3ccc(-n4ccc5ccccc54)s3)CC2)cc1 -9.62%
COc1ccc(CCNC(=O)c2cccc(-n3c(C)nc4cccnc43)c2)cc1OC -8.7%
COC(=O)c1ccc(NC(=O)CSc2cn(CC(=O)N3CCCCCC3)c3ccccc23)cc1 -23.3%
COc1ccc(-c2cc3nc(-c4ccc(Br)cc4)cc(C(F)(F)F)n3n2)cc1 -0.339%
COCCCn1c(=N)c(S(=O)(=O)c2ccccc2)cc2c(=O)n3cc(C)ccc3nc21 5.77%
Cc1ccc(OCC(=O)OCc2cc(=O)n3nc(-c4cccs4)sc3n2)cc1 12.1%
COc1cccc(NC(=O)C2CCCN(c3nnc(-n4c(C)ccc4C)s3)C2)c1 (centres undefined) 12.3%
COc1ccccc1CNC(=O)CCCn1nc(C)c2sc3ccccc3c2c1=O -1%
Cc1ccccc1OCC(=O)Nc1ccc2nc(SCC(=O)N(C)c3ccccc3)sc2c1 -38.6%
CC(C)(C)OC(=O)N1CCC(c2c(C(=O)N3CCN(c4ccc(Cl)cc4)CC3)cnn2-c2ccc(F)cc2F)CC1 -34.6%
COc1ccc(Cl)cc1NC(=O)c1cc2ccc3ccc(C)[nH]c3c2n1 3.25%
Cn1cc(S(=O)(=O)c2ccc(Cl)cc2)c(=O)c2cc(F)c(N3CCCC3)cc21 -19.1%
Cc1nc2sccn2c(=O)c1S(=O)(=O)NCc1ccc(F)cc1 -4.17%
CCc1ccc(NC(=O)CSc2c(C)cnc3c2c(=O)n(C)c(=O)n3C)cc1 -15.2%
Cn1c(=O)c2nc(SCC(=O)Nc3cc(Cl)cc(Cl)c3)n(C)c2n(C)c1=O -8.32%
Cc1ccc(Cn2c(CNS(=O)(=O)c3ccc(C(C)(C)C)cc3)nc3cccnc32)cc1 -33.2%
C[C@H](Cc1ccc(O)c(O)c1)[C@@H](C)Cc1ccc(O)c(O)c1 -49.4%
COc1cc(NC(=O)c2cc(-c3cccs3)on2)c(OC)cc1Cl 9.57% [at 11.5 µM, percent change from vehicle, -100% = no light]
CC(C)CCNC(=O)Nc1ccc2c(c1)N(C)C(=O)c1ccccc1S2 -25.1%
COC(=O)CS(=O)(=O)c1nc2ccccc2nc1N1CCCCC1 -5.15%
COCCCNc1ncnc2onc(-c3ccc(F)cc3)c12 -3.09%
COCCCNC(=O)CN1C(=O)COc2ccc(S(=O)(=O)N3CCCC3)cc21 -6.72%
Cc1ccc(NC(=O)Cn2c(=O)c3cc(Cl)ccc3n3nncc23)cc1 -8.59%
Cc1n[nH]c(C)c1S(=O)(=O)N(CC(=O)NC(C)c1ccccc1)c1ccc(C(C)C)cc1 (centres undefined) -22.7%
COc1ccc(C(=O)NCCn2cc(SCC(=O)NCCc3ccc(OC)c(OC)c3)c3ccccc32)cc1 -53.6%
COc1cccc(NC(=O)Cn2cnc3c(nc4n3CCCCC4)c2=O)c1 2.7%
CC1=C(c2ccc(C)c(C)c2)S(=O)(=O)N=C1N1CCC(C(=O)NCCc2ccco2)CC1 -17%
Cc1ccc(-c2cc(C(=O)N3CCN(S(=O)(=O)c4ccc(Br)cc4)CC3)[nH]n2)cc1C -15.2%
CC1=Nc2cc(C(=O)NC3CCCC3)ccc2Sc2ccc(C)cc21 -46.9%
COc1cccc(C(=O)Nc2ccccc2C(=O)OCc2cc(=O)n3c(C)csc3n2)c1 -20.1%
COc1ccc(NC(=O)Cn2c(C)cc3ccccc3c2=O)c(OC)c1 -9.85%
Cc1nn(-c2nc(-c3ccc(F)cc3)cc(C(F)(F)F)n2)c(C)c1Br -11.8%
COC(=O)c1cc(C)nc2c1c(=O)nc(SCc1cccc(C)c1)n2C1CC1 -12%
CCOc1ccc(CNC(=O)CCS(=O)(=O)c2cc3c(cc2Cl)NC(=O)CO3)cc1OC -0.291%
CCOC(=O)c1ccccc1NC(=O)Nc1cc2c(cc1N1CCCCC1)n(C)c(=O)n2C -3.58%
Cc1nn(-c2ccc(F)cc2)c(-n2cccc2)c1C(=O)NCCCN1CCN(c2ccccc2F)CC1 -30.9%
COc1cccc(NC(=O)CCc2c(C)nc3c4cccnc4nn3c2C)c1 -7.17%
O=C(Nc1ccc(N2CCC(c3ccccc3)C2)c(C(=O)O)c1)c1ccc(Cl)cc1 (centres undefined) -11.9%
CCOc1ccc(Oc2nc(NCC(C)C)nc(NC(C)(C)C)n2)nn1 -7.62%
COc1ccccc1OCC(=O)N(Cc1ccc(Cl)cc1)CC1CCCO1 (centres undefined) -18.3%
CCc1cccc(CC)c1NC(=O)c1ccc2c(c1)CCN2S(=O)(=O)c1ccccc1 -18.2%
CC(=O)c1ccc(NC(=O)CC2Nc3cccc4cccc(c34)NC2=O)cc1 (centres undefined) -23.6%
Cc1cccc(NC(=O)CN2C(=O)c3cccnc3Oc3ccc(Cl)cc32)c1C -33.5%
CSc1ccc(CCNC(=O)CCCn2nc(C)c3sc4ccccc4c3c2=O)cc1 -0.976%
CCc1cccc(NC(=O)CCS(=O)(=O)c2cc(Br)cc3c2N(C(C)=O)CC3)c1 -7.81%
COc1cc(OC)cc(C(=O)Nc2ccc3c(c2)N(C2CCCC2)C(=O)c2ccccc2S3)c1 -38.1%
O=C(NCc1ccccc1Cl)c1cc2ccccc2o1 15.2%
O=C(CSc1nc2ccccc2nc1Cc1ccccc1)N1CCCCC1 -18.9%
COc1cc(-c2nc3ncccn3c2Nc2ccc(C)cc2C)ccc1O -8.35%
CCOc1ccc(-c2nnc(SCC(=O)NCc3ccccc3)nc2-c2ccc(OCC)c(OC)c2)cc1OC -17.9%
CCc1ccc(C2CC(=O)Nc3c2c(C)nn3-c2nc(C)cc(C)n2)cc1 (centres undefined) -28.4%
CCOc1ccccc1NC(=O)N1CCN(Cc2nc3ccc(C)cc3o2)CC1 -13.2%
Cc1ccc(C)c(N2CCN(S(=O)(=O)c3c(C)nc4sccn4c3=O)CC2)c1 12.7%
Cc1cc(C)cc(-n2c(SCC(N)=O)nc3c(oc4ccccc43)c2=O)c1 -13.8%
CCCCOc1cccc(C(=O)Nc2ccc3oc(-c4cccnc4)nc3c2)c1 -24.1%
CCOc1ccccc1NC(=O)Cn1cnc2sc(C)c(S(=O)(=O)N3CCC(C)CC3)c2c1=O 9.48%
CCC(=O)NCC(c1ccc2c(c1)OCO2)N1CCN(c2ccccc2)CC1 (centres undefined) -10.6%
Cc1nc2ccccc2c(=O)n1-c1ccc(NC(=O)c2ccc([N+](=O)[O-])cc2)cc1 -18%
COc1ccc(-c2[nH]nc3nc(-c4cc(OC)c(OC)c(OC)c4)cc(C(=O)O)c23)cc1 -6.51%
COc1ccc(C(=O)Nc2nnc(S(=O)(=O)N(C)c3ccc(Cl)cc3)s2)cc1OC -31.2%
Cc1ccccc1CNC(=O)C(=O)NCC(c1ccco1)S(=O)(=O)c1ccccc1 (centres undefined) -12.9%
Cc1ccc(CCNC(=O)c2cn(C)c3ccc(S(=O)(=O)N4CCCCC4)cc3c2=O)cc1 6.92% [at 11.5 µM, percent change from vehicle, -100% = no light]
CCCS(=O)(=O)N1CCCC(C(=O)NCCCOC)C1 (centres undefined) -3.48%
COc1c(Cl)cc2c([nH]c3cnccc32)c1NC(=O)c1cccnc1C 0.341%
CCCCCC=CCC=CCCCCCCCC(=O)OCC -1.56%
Cc1ccc2[nH]c(CSc3nnc(NC(=O)c4ccccc4C)s3)cc(=O)c2c1 -39.7%
COCCCNC(=O)c1cc(-c2cccnc2)nc2ccc(S(=O)(=O)N3CCC(C)CC3)cc12 -11.4%
CN1C(=O)C2(c3ccccc31)N(c1cccc(F)c1)C(=O)CS2(=O)=O (centres undefined) 11.2%
COc1ccc(Cl)cc1NC(=O)c1c(NCc2sccc2C)sc2c1CCCC2 -0.615%
Clc1ccccc1CNc1nc2ccccc2c2nc(-c3cccnc3)nn12 -11.3%
O=C(Cn1nnc(-c2ccc(Cl)cc2)n1)NCc1ccc(F)cc1 -8.32%
COc1ccc(OC)c(CNS(=O)(=O)c2c(C(=O)N3CCCCCC3)c(C)n(C)c2C)c1 -5.58%
O=S(=O)(c1ccc(Br)cc1)c1nc(-c2cccs2)oc1SCc1ccccc1F -1.39%
Cc1ccc(-n2ncc(C(=O)Nc3ccc4c(c3)OCO4)c2C2CCN(C(=O)OC(C)(C)C)CC2)cc1 -12.4%
Cc1ccnc(NS(=O)(=O)c2cc(-c3cc(C)no3)ccc2C)c1 -5.87%
CCc1ccc(N(CC)C(=O)Cn2c(=O)oc3ccccc32)cc1 1.27%
COc1ccc(NC(=O)C2CCCN(S(=O)(=O)c3ccc4c(c3)CCCC(=O)N4)C2)c(OC)c1 (centres undefined) -32%
Cc1nn(S(=O)(=O)c2ccc(F)cc2)c(C)c1S(=O)(=O)N1CCC(C)CC1 -9.54%
COc1cccc2cc(C(=O)NCCc3c(C)[nH]c4ccc(Br)cc34)c(=O)oc12 -19.7%
CCOC(=O)c1cc2c(=O)n3ccccc3nc2n(CC(C)C)c1=NC(=O)c1cc2ccccc2o1 -2.62%
Cc1ccc(S(=O)(=O)c2cn(Cc3ccc(F)cc3)c3cc(F)c(F)cc3c2=O)cc1 0%
CCOCCn1ccc2c(OCC(=O)Nc3ccc(OC(F)(F)F)cc3)cccc2c1=O -17.4%
O=C(CN1C(=O)CC(c2ccccc2)Sc2ccccc21)Nc1cccc(Cl)c1 (centres undefined) -38.5%
CC(=O)c1cccc(NC(=O)CCS(=O)(=O)c2ccc(Br)s2)c1 -1.11%
CC(C)(C)NC(=O)c1cnn2c(C(F)F)cc(-c3ccccc3)nc12 -8.43%
Cc1ccc(CCNC(=O)C2CCN(c3nnc(-n4cccc4CNc4ccc(C)cc4)s3)CC2)cc1 -39.1%
CCN(C(=O)Cn1c(=O)oc2cc(Cl)ccc21)c1cccc(C(F)(F)F)c1 -8.34%
COc1ccc(/C=C/C(=O)Nc2nc3n(n2)C(c2ccccc2)C=C(c2ccccc2)N3)cc1 (centres undefined) -24.1%
Cc1ccc(-c2cnc(NCc3ccc(C(F)(F)F)cc3)n2C)cc1 -10.6%
CC(C)c1cnc2c(c1SCC(=O)NCc1ccccc1)c(=O)n(C)c(=O)n2C -13.2%
CN(Cc1ccccc1)C(=O)CSc1nc2ccccc2n1Cc1ccccc1F -10.1%
Cc1ccccc1NC(=O)CSc1nc(=O)n(CCN2CCOCC2)c2c1CCC2 -1.64%
Cc1sc2c(c1C)c(=O)n(-c1cccc(C(F)(F)F)c1)c(=O)n2Cc1ccc(F)cc1 -6.63%
